Measurements taken from article PMC8201613.
These are yes or no findings as the source states them, for the method shown. In cells and extracts the contact can be indirect. Some binding calls cover weakened binding; strength is not graded here. For some of these results: Where a sequence is shown, tags or fusion partners need not be part of it.

The chains behind the UniProt entries cited, without tags or fusion partners.
UniProt Q14643: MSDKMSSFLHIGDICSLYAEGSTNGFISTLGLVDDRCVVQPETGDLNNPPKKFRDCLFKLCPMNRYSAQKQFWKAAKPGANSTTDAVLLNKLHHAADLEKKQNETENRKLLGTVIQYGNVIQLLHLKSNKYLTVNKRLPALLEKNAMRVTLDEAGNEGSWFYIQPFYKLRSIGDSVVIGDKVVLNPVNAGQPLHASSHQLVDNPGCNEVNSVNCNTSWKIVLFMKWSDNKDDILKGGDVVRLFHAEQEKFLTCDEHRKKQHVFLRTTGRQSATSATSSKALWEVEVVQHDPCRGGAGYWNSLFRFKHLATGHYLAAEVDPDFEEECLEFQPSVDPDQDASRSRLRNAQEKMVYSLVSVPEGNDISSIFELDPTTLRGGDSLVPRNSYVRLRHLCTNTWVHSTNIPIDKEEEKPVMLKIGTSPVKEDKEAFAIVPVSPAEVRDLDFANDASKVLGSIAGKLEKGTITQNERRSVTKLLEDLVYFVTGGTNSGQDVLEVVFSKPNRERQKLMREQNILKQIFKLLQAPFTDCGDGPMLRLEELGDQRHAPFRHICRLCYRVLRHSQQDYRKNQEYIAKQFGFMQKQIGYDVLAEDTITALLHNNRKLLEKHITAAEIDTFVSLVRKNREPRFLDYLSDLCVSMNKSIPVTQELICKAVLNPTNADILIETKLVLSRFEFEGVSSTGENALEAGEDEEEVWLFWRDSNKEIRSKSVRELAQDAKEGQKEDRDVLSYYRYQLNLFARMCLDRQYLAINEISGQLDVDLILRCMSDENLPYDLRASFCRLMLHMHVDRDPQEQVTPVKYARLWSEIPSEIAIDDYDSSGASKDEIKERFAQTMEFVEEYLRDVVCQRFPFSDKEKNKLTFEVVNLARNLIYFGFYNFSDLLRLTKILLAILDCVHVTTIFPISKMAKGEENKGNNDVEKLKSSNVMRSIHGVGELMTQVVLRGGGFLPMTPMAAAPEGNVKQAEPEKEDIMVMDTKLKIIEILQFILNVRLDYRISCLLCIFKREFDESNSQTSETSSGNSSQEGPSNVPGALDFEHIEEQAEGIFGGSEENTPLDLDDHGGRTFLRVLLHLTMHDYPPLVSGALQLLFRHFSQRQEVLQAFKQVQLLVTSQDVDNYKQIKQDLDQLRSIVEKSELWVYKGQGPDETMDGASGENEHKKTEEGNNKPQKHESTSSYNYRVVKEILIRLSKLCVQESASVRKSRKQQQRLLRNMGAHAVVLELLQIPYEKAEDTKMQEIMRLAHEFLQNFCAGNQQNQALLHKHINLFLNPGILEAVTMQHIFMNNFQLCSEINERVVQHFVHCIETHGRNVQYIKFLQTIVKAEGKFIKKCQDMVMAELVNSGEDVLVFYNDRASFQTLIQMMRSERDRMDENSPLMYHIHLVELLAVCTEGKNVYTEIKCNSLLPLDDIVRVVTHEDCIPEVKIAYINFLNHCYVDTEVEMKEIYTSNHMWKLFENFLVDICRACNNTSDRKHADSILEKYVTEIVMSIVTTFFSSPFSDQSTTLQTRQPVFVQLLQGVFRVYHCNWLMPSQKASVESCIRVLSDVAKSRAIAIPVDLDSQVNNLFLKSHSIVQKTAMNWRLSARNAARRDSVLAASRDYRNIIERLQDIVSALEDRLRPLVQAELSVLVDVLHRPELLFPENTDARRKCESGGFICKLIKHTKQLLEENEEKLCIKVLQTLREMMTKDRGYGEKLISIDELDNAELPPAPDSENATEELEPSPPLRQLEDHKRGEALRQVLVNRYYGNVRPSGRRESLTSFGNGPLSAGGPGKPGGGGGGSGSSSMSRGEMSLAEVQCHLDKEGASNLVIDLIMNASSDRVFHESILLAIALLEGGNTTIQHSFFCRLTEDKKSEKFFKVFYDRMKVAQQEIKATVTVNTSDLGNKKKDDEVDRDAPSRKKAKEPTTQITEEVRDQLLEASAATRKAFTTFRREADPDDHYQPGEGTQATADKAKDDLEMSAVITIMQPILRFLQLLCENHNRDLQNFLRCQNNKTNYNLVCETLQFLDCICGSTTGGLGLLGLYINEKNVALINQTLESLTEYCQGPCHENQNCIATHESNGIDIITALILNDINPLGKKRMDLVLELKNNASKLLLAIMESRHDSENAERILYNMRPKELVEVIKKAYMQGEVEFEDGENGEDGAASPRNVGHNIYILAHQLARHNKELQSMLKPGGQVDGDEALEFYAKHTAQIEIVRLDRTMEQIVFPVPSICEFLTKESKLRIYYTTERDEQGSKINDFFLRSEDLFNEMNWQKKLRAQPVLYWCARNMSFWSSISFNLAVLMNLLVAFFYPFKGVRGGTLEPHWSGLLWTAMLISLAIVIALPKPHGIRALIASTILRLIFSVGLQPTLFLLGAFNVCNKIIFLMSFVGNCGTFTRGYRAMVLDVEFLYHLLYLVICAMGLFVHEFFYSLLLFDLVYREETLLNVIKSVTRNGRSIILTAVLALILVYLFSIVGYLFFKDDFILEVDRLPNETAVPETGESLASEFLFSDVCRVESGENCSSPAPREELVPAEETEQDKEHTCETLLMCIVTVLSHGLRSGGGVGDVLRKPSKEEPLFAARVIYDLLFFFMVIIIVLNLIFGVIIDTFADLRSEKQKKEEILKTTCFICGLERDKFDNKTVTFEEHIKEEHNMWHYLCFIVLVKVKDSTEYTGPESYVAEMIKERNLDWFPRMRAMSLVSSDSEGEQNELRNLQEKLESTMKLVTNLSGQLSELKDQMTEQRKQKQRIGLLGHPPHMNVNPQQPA
UniProt Q14573: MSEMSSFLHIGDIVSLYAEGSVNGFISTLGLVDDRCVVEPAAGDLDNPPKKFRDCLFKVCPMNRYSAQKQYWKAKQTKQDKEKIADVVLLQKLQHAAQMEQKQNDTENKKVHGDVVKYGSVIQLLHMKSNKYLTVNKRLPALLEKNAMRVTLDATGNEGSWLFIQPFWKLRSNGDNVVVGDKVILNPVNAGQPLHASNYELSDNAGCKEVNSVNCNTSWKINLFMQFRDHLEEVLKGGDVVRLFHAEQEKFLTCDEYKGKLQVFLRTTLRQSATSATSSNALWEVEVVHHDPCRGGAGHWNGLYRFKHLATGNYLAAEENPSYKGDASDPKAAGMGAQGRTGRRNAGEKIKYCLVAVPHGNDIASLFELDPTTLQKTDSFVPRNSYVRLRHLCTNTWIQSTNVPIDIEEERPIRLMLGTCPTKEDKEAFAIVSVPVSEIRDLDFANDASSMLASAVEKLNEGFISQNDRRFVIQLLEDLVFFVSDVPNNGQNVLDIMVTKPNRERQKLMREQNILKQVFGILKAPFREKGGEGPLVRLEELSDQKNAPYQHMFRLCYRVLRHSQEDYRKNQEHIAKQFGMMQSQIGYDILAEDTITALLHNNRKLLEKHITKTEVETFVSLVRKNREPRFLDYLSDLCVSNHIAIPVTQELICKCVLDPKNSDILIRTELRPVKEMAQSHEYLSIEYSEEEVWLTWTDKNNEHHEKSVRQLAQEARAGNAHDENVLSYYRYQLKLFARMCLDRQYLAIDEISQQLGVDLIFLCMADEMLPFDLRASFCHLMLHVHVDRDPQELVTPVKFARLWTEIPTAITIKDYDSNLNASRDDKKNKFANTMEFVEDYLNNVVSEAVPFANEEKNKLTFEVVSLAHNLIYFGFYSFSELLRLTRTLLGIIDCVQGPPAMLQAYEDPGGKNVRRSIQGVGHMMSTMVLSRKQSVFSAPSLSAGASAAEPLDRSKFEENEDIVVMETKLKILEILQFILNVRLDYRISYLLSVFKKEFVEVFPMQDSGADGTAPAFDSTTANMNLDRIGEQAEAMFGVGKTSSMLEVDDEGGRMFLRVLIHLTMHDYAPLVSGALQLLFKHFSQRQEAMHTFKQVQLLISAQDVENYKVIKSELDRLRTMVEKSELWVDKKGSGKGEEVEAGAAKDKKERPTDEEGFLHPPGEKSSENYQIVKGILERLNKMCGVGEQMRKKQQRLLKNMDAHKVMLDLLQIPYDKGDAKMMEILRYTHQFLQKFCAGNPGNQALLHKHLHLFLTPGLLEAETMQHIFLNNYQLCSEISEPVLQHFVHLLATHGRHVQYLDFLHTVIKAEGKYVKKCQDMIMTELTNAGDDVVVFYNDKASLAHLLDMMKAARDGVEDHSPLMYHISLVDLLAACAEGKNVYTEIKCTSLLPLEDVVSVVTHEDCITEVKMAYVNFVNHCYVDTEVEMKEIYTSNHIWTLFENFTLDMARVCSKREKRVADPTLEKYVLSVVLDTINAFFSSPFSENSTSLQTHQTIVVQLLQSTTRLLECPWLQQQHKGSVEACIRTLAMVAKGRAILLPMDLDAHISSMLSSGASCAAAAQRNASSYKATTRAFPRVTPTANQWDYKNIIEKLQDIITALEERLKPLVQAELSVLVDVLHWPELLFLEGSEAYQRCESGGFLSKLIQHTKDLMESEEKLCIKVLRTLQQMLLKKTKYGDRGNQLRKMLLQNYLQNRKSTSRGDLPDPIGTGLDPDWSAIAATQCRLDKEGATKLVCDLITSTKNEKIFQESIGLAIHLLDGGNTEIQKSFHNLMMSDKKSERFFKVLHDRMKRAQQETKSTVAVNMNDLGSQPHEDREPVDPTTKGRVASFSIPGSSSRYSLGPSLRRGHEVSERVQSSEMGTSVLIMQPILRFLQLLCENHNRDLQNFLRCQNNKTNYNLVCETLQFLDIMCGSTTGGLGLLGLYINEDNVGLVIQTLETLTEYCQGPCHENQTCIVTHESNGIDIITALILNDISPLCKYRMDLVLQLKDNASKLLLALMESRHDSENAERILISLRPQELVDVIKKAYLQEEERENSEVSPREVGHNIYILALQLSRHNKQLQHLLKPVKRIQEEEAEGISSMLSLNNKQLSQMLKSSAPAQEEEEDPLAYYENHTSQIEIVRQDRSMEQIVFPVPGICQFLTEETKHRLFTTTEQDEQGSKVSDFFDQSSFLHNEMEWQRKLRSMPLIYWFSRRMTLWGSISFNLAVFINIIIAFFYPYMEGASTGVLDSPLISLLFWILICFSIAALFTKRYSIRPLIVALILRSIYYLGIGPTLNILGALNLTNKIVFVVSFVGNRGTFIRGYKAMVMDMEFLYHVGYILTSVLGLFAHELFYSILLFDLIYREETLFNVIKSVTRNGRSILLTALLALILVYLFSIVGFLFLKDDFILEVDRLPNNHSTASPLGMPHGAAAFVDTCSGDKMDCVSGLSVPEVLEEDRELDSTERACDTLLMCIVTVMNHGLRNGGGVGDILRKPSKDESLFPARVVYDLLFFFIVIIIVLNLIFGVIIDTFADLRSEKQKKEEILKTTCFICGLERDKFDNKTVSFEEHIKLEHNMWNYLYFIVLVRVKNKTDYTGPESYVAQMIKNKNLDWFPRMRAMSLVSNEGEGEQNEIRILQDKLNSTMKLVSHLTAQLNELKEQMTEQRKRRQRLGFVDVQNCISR
UniProt P97287: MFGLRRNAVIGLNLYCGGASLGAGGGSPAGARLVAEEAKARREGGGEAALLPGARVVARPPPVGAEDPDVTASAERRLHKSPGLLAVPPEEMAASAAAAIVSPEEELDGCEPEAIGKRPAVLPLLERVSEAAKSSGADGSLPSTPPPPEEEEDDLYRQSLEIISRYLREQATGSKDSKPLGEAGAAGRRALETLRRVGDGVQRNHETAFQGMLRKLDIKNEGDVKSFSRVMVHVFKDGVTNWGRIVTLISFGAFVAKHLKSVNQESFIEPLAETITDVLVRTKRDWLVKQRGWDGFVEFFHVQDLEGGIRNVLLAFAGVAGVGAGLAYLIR

Key:
[1] = molecular target: inositol 1,4,5-trisphosphate receptor type 1 (human (endogenous in HeLa)) (UniProt Q14643); assay: co-IP; anti-IP3R1/IP3R3 IP (Protein A-Sepharose) from lysates (1% Triton X-100) of Bok KO HeLa cells transfected with T-Bok constructs; immunoblot
[2] = molecular target: inositol 1,4,5-trisphosphate receptor type 3 (human (endogenous in HeLa)) (UniProt Q14573); assay: as above
[3] = molecular target: 1F-mouse Mcl-1 (mouse) (UniProt P97287); assay: co-IP; anti-Flag IP from lysates (1% Triton X-100) of Bok KO HeLa cells co-transfected with 1F-Mcl-1 and Bok constructs for ~18 h; immunoblot

B1: V5-TurboID-Bok^WT (protein, UniProt O35425 1-213)
chain: MEVLRRSSVFAAEIMDAFDRSPTDKELVAQAKALGREYVHARLLRAGLSWSAPERASPAPGGRLAEVCTVLLRLGDELEQIRPSVYRNVARQLHIPLQSEPVVTDAFLAVAGHIFSAGITWGKVVSLYSVAAGLAVDCVRQAQPAMVHALVDCLGEFVRKTLATWLRRRGGWTDVLKCVVSTDPGFRSHWLVATLCSFGRFLKAAFFLLLPER
binding [1]: binds | binding [2]: binds

B2: mouse Bok^WT (protein, UniProt O35425 1-213)
chain: MEVLRRSSVFAAEIMDAFDRSPTDKELVAQAKALGREYVHARLLRAGLSWSAPERASPAPGGRLAEVCTVLLRLGDELEQIRPSVYRNVARQLHIPLQSEPVVTDAFLAVAGHIFSAGITWGKVVSLYSVAAGLAVDCVRQAQPAMVHALVDCLGEFVRKTLATWLRRRGGWTDVLKCVVSTDPGFRSHWLVATLCSFGRFLKAAFFLLLPER
binding [3]: binds

B3: mouse Bok^L34G (protein, UniProt O35425 1-213)
chain: MEVLRRSSVFAAEIMDAFDRSPTDKELVAQAKAGGREYVHARLLRAGLSWSAPERASPAPGGRLAEVCTVLLRLGDELEQIRPSVYRNVARQLHIPLQSEPVVTDAFLAVAGHIFSAGITWGKVVSLYSVAAGLAVDCVRQAQPAMVHALVDCLGEFVRKTLATWLRRRGGWTDVLKCVVSTDPGFRSHWLVATLCSFGRFLKAAFFLLLPER
binding [3]: binds

B4: mouse Bok^ΔTM (domain or fragment, UniProt O35425 1-187)
chain: MEVLRRSSVFAAEIMDAFDRSPTDKELVAQAKALGREYVHARLLRAGLSWSAPERASPAPGGRLAEVCTVLLRLGDELEQIRPSVYRNVARQLHIPLQSEPVVTDAFLAVAGHIFSAGITWGKVVSLYSVAAGLAVDCVRQAQPAMVHALVDCLGEFVRKTLATWLRRRGGWTDVLKCVVSTDPGFR
binding [3]: binds weakly

B5: V5-TurboID-Bok^L34G (protein, UniProt O35425 1-213)
chain: MEVLRRSSVFAAEIMDAFDRSPTDKELVAQAKAGGREYVHARLLRAGLSWSAPERASPAPGGRLAEVCTVLLRLGDELEQIRPSVYRNVARQLHIPLQSEPVVTDAFLAVAGHIFSAGITWGKVVSLYSVAAGLAVDCVRQAQPAMVHALVDCLGEFVRKTLATWLRRRGGWTDVLKCVVSTDPGFRSHWLVATLCSFGRFLKAAFFLLLPER
binding [1]: no binding | binding [2]: no binding
